# Experimental data: article PMC12040169 (PLOS Biology, 2025)
# The other results are listed elsewhere or left out.
# System: T1, C. trachomatis L2/434/Bu expressing GFP (CTL2-GFP)
# T1 construct: L2/434/Bu GFP intracellular growth in HeLa cells
# Design: species or system HeLa; C. trachomatis total inclusion area by high-content imaging, normalised to DMSO
# Settings: total inclusion area; 28.5 h, 10 µM; inhibitor
# Outline: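 High-content imaging followed the bulk GFP/resorufin measurement: fixed, Hoechst-stained cells were scored for GFP inclusions and host nuclei per well. Total inclusion area and count served as growth proxies, nuclei number as the viability proxy. MIC calculation matched the bulk assay.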
row,SMILES,% of control remaining
1,Cc1cc(I)cnc1NC(=O)CSc1ccc(Cl)cc1 [CBK266438],98.4573
2,O=C(Nc1ccc(/C=C/c2ccccc2)cc1)c1ccc(COc2ccccc2)o1 [CBK267829],91.364
3,CCN(CC)C(=O)CN1C(=O)C2(Nc3ccccc3C(=O)N2c2ccc(C)cc2)c2ccccc21 (stereo not shown) [CBK093478],72.4857
4,Cc1oc(NC(=O)CN2CCN(c3ccccn3)CC2)c(C#N)c1C [CBK236456],37.7935
5,CNCC1CCCN(Cc2cn(-c3ccc(Br)cc3)nc2C)C1 (stereo not shown) [CBK304301C],36.3736
6,O=C(Nc1cc2ccccc2c(N2CCNCC2)n1)c1cnccn1 [CBK036346T],85.8522
7,CC(c1nc2ccccc2[nH]1)N1CCC2(CC1)NCCc1c2[nH]c2ccccc12 (stereo not shown) [CBK040061],56.2668
8,Cc1ccc(S(=O)(=O)N=C2NCN(CCOC(=O)c3ccc([N+](=O)[O-])cc3)CN2)cc1 [CBK265235],109.702
9,CSCCC(C(=O)O)N1C(=O)C(=Cc2ccc(-c3cc(Cl)cc(Cl)c3)o2)SC1=S (stereo not shown) [CBK296984],89.4262
10,O=c1cc(-c2ccc(Br)cc2)nc2[nH]ccn12 [CBK016446],91.8625
11,O=S(=O)(Nc1ccc(N2CCCCC2)cc1)c1cccc2cccnc12 [CBK263077],96.435
12,Cn1c(=O)n(C)c2cc(CN3CCN(C4CCCC4)C(=O)C3)ccc21 [CBK281909],115.911
13,CN(C(=O)OC(C)(C)C)C1CN(C(c2ccccc2)c2ccccc2)C1 [CBK008111],92.9366
14,O=c1ccc2ccc(-c3cccc(OCc4ccccc4)c3)nc2[nH]1 [CBK073722],85.822
15,COC(=O)C1C2CCN(CC2)C1SCc1cccc(C(F)(F)F)c1 (stereo not shown) [CBK010829C],95.1898
16,O=C(O)CC1Cn2ncc(-c3ccccc3)c2NC1=O (stereo not shown) [CBK288187],99.9458
17,CCCC(=O)c1ccc2c(c1)CC(N(CCC)CCC)C2 (stereo not shown) [CBK023971C],109.015
18,Cc1cc(C2CCCCCN2Cc2c(C)nn(C)c2C)on1 (stereo not shown) [CBK282967],100.679
19,COc1cc(NS(=O)(=O)c2ccc(N/C=C3/CCc4ccccc4C3=O)cc2)nc(OC)n1 [CBK263376],21.7838
20,CCCc1cc(O)nc(SCC(=O)Nc2cc3c(cc2C(C)=O)OCO3)n1 [CBK266144],69.9444
21,Cc1nc(CNC(=O)c2nn(-c3cccc(C(C)C)c3)cc2O)no1 [CBK305269],71.0895

row,SMILES,% of control remaining
1,COc1ccc(C2=NN(c3ccc([N+](=O)[O-])cc3)C(=O)/C2=C\c2cccc(OC)c2OC)cc1 [CBK264475],114.948
2,O=C(Nc1ccccc1C(=O)NCCN1CCOCC1)c1cccs1 [CBK270077],97.8847
3,NS(=O)(=O)c1ccc(CCNC(=O)c2ccc(Cl)c([N+](=O)[O-])c2)cc1 [CBK264395],121.959
4,CCN(CCc1nc2cc(OC)ccc2[nH]1)C(=O)c1ccc(=O)n(C)c1 [CBK307312],63.9654
5,CCCC(=O)N1CCN(Cc2ccc3c(c2)OCO3)CC1 [CBK074367],106.866
6,COc1ccc(OC)c(NC(=O)c2cnc3scc(C)n3c2=O)c1 [CBK287462],102.719
7,COCC(=O)Nc1ccc(Cl)c(NC(=O)NCCN2CCCC2=O)c1 [CBK306663],79.6462
8,COc1cc2c(cc1OC)CN(CCO)CC2 [CBK138322],97.7963
9,c1ccc(CCNc2nccnc2-c2ccncc2)nc1 [CBK037378],85.889
10,O=C(CSc1nc2ccccc2s1)OCc1ccc([N+](=O)[O-])cc1 [CBK262547],101.264
11,COC(C(=O)NCc1sc(-c2ccccc2)nc1C)c1ccccc1 (stereo not shown) [CBK092362],105.62
12,COc1ccc(Cc2nc(C3CCC3)n(CC3COCCO3)n2)cc1 (stereo not shown) [CBK307378],72.4623
13,Cc1c(C(=O)N2CCC(c3c(C(=O)NC(C)C)sc4ccccc34)C2)[nH]c2ccccc12 (stereo not shown) [CBK285872],92.6114
14,c1cncc(-c2cn3ccnc3c(NCC3CC3)n2)c1 [CBK036609],79.972
15,CN(C)c1ccc(-c2nccnc2NS(=O)(=O)c2cccs2)cc1 [CBK050804],99.3788
16,NC(=O)c1c(NC(=O)CSC2=NCCS2)sc2c1CCCC2 [CBK269989],95.0732
17,Cc1nnc(CN(CC2CCCO2)C2CCC(C)CC2)o1 (stereo not shown) [CBK304824],87.1705
18,Nc1ncc(-c2cc(C(F)(F)F)cc(C(F)(F)F)c2)nc1N1CCN(CCO)CC1 [CBK063426],61.2308
19,Cc1cc(Cl)ccc1CNC(=O)C1=CC(=O)CC(C)(C)O1 [CBK153282],90.6673
20,Cc1ccc(CNc2c(-c3ccco3)nc3cnccn23)cc1 [CBK283693],118.856
21,N#C/N=C(/Nc1cccnc1)Oc1ccccc1 [CBK012612],53.7045

row,SMILES,% of control remaining
1,COc1cc2c(cc1OC)CN(CCN1CCCCC1)CC2 [CBK126439],117.151
2,O=C(c1ccccc1)N1CCCC(c2nnc(-c3cccs3)o2)C1 (stereo not shown) [CBK283059],60.4579
3,Nn1cnn2c(SCCSC3CCCCC3)nnc12 [CBK263192],108.524
4,Cc1ccc(S(=O)(=O)N(CC(=O)NCc2ccco2)c2cc(C)cc(C)c2)cc1 [CBK263982],102.227
5,CCOc1ccc(NC(=O)N(Cc2cnn(C)c2)CC(C)C)cc1C#N [CBK307636],19.2014
6,COc1ccccc1C(C)CN(C)C (stereo not shown) [CBK011948C],125.675
7,CCn1c(COc2ccc(C(=O)O)cc2)nc2ccccc21 [CBK267647],106.424
8,O=C1CC2(CCCC2)C(=O)N1CCNc1nccc(C(F)(F)F)n1 [CBK028777],82.0407
9,CCOC(=O)C1CSCCN1C(=O)c1ccc(-c2cnco2)cc1 (stereo not shown) [CBK304208],54.4014
10,CCCOc1ccc(C(=O)NCc2ccccn2)cc1 [CBK269789],94.37
11,CCc1cc(CNC(=O)C(c2ccc(F)cc2)N(C)C)on1 (stereo not shown) [CBK281648],110.962
12,CC(=O)CCc1cc(CCC(N)=O)on1 [CBK023350],122.809
13,CCCn1c(-c2ccccc2OC(F)(F)F)n[nH]c1=O [CBK074238],104.985
14,NC(=O)CCNC(=O)C1(c2ccccc2)CCCC1 [CBK160929],109.47
15,CC(C)c1ccc(/C=C2\CCCc3c2nc2ccccc2c3C(=O)O)cc1 [CBK299777],74.8784
16,O=C(NCc1ccc(OC2CCNCC2)cc1)c1ccccn1 [CBK036361T],113.566
17,CSc1ncc(CNCc2ccc3c(c2)OCO3)c(N)n1 [CBK074563],79.5547
18,CCn1ncc(CN[C@@H]2CCC(=O)N[C@H]2c2cc(F)cc(F)c2)c1C [CBK282914],114.447
19,CN(C)CC(C)(C)CNC(=O)c1cnc2cc(Cl)ccc2c1O [CBK107357],100.31
20,CCOC(=O)c1c(NC(=O)CCN2C(=O)c3cccc4cccc(c34)C2=O)sc2c1CCC2 [CBK262982],90.8173
21,Cc1ccccc1/N=C1/NC(=O)/C(=C/c2ccc([N+](=O)[O-])o2)S1 [CBK094584],111.193

row,SMILES,% of control remaining
1,O=C(O)c1ccc(-n2nnnc2SCc2ccc(F)cc2)cc1 [CBK287229],94.9549
2,CCc1c(C(=O)Nc2ccc(C(F)(F)F)cc2)cnc2ncnn12 [CBK291244],115.524
3,Cc1nonc1NC(=O)CSc1nc2cc(Cl)ccc2[nH]1 [CBK270095],108.175
4,COc1cccc(CN(C)CCN(C)C)c1O [CBK261905],98.4118
5,Cc1ccc(-c2cc(C(=O)Nc3ccc(S(=O)(=O)Nc4nccs4)cc3)c3ccccc3n2)c(C)c1 [CBK262638],86.1695
6,COCCN(C(=O)c1ccc2ccccc2c1)C1CCS(=O)(=O)C1 (stereo not shown) [CBK305758],38.3146
7,CCOc1ccccc1NC(=O)Nc1ncccc1C [CBK267140],125.542
8,c1coc(CNc2c(-c3ccco3)nc3cnccn23)c1 [CBK283496],103.635
9,CC[C@H]1CN(C(=O)c2ccnc(Cl)c2)CC[C@H]1CC(=O)NCc1ccc2c(c1)OCO2 [CBK289137],91.4076
10,COc1ccc(C(=O)/C=C/c2cccs2)c(OC(=O)c2ccc([N+](=O)[O-])cc2)c1 [CBK264926],107.607
11,CC(=O)NCCSc1cc(C(F)(F)F)ccn1 [CBK105297],87.872
12,COc1ccc(OC)c(-n2nnnc2SCC2CCCN(C)C2)c1 (stereo not shown) [CBK305386],87.2557
13,Cc1ccc(SCC(=O)Nc2ccc(O)cc2C(=O)O)cc1 [CBK131703],99.8294
14,O=C(O)c1cccc(S(=O)(=O)Nc2nc3ccc(Cl)cc3s2)c1 [CBK299793],105.669
15,c1coc(CNc2c(-c3cccs3)nc3cnccn23)c1 [CBK283540],100.596
16,CC(C)NC(=O)C1CC2CCC1(C)C[C@]21NC(=O)c2ccccc2N1 (stereo partly shown) [CBK284444],114.243
17,CCn1c(SCC(=O)N/N=C/C(C)=C/c2ccccc2)nc2ccccc21 [CBK263178],71.1166
18,COc1ccc(Nc2nnc(-c3ccc(C(=O)NCCO)cc3)c3ccccc23)cc1 [CBK263735],116.116
19,O=C(Nc1ccccc1C(F)(F)F)N(Cc1ccccc1C(F)(F)F)CC1CCNCC1 [CBK049744],87.7591
